According to PubChem BioAssay AID1768 (National Center for Advancing Translational Sciences (NCATS), 2009):
Screen size: about 270,000 compounds; about 620 (0.23%) were called active. Inconclusive means that the source gave no clear call. Such entries were picked first, then a sample of the others. Calls follow the shape of the dose curve; as a rule, active = well fitted inhibition curve with a large enough effect in the polarisation, with a control signal flat (not every such curve was filed as active); inconclusive = small, poorly fitted or top-dose-only effect, or effect the other way, or a change in a side signal; inactive = no such curve, though single readings can be large or run the other way; the % refers to the polarisation. Potencies of inconclusive entries are doubtful fits and often do not repeat. A note “side channel” means that the fit belongs to a control or component signal, not to the main read-out.

The molecules below were run against Menin (Homo sapiens) (UniProt O00255) (assay: qHTS Assay for Inhibitors Targeting the Menin-MLL Interaction in MLL Related Leukemias: Competition With Texas Red Labeled MLL-derived Mutant Peptide). Settings: fluorescence polarization; FP activity change, negative = inhibition: at 61.6 µM (top of the series).
For FP activity change, negative = inhibition in this document: % of control where 0% means no effect.
Potency is read from the fitted curve at half-maximal effect; tags tell the direction and shape of the fitted curve or compound fluorescence and quenching.

Chain of UniProt O00255 (O00255 whole entry, looked up): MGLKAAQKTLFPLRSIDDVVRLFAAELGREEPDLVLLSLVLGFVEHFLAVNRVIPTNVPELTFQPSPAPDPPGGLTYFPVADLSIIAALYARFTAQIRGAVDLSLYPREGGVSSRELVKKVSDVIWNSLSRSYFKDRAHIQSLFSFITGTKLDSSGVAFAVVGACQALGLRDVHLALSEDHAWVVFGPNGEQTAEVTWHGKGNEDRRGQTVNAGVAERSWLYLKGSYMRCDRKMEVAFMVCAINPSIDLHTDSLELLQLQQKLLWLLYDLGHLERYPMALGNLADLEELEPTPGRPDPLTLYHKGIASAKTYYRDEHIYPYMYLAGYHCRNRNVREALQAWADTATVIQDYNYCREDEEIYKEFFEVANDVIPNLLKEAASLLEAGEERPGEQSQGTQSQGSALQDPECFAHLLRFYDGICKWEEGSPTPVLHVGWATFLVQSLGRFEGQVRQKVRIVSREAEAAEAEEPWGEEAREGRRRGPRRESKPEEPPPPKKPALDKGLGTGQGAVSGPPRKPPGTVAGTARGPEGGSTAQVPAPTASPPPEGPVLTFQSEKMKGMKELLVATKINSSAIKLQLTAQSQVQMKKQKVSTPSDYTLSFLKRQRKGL

Q: With `CCc1c(C)c(C#N)c2nc3ccccc3n2c1NC` as the molecule, how does the Potency read?
A: inconclusive: 39.8 µM [fluorescent, side channel, single point]

Q: For `CN(C)S(=O)(=O)c1cc(NC(=O)CSc2nn(-c3ccc(Cl)cc3)c(=S)s2)ccc1Cl`, which Potency is on record?
A: inconclusive: 3.98 µM [quencher, side channel, full curve, poor fit]

Q: How did the Potency turn out when `CCC(C)NC(=O)c1cc(Cl)c(NC(=O)C2=C(C)OCCS2)cc1OC` (configuration not stated) was run?
A: inconclusive: 15.8 µM [fluorescent, side channel, partial curve]

Q: `CC(=O)OCC1OC(C#CCC2CCCCC2)C=CC1OC(C)=O` (configuration not stated) was tested. Which Potency did it give?
A: inconclusive: 6.31 µM [quencher, side channel, single point]

Q: For `O=C(COC(=O)Cc1ccsc1)NCC12CC3CC(CC(C3)C1)C2`, which Potency is on record?
A: inconclusive: 39.8 µM [fluorescent, side channel, single point]

Q: `CC1CC(C)CN(c2oc(-c3ccccc3Cl)nc2C#N)C1` (configuration not stated) was tested. Which Potency did it give?
A: inactive

Q: `CCCC(=O)Nc1nc2ccc(OCC)cc2s1` was tested. Which Potency did it give?
A: inactive

Q: Which Potency does the source give for `CSc1ccc(NC(=O)NCc2cccnc2)cc1` here?
A: inconclusive: 8.91 µM [quencher, side channel, full curve, poor fit]

Q: For `Cc1cc(C)cc(NC(=S)NC2CC3CCCC(C2)N3C2CC2)c1` (configuration not stated), which Potency is on record?
A: inconclusive: 14.1 µM [inhibitor, partial curve]

Q: How did the Potency turn out when `COc1ccc(/C=N/OCc2nc3c4c(ncn3n2)Oc2ccc3ccccc3c2C4c2ccccc2)cc1` (configuration not stated) was run?
A: inconclusive: 0.631 µM [inhibitor, full curve, poor fit]

Q: Which Potency does the source give for `COc1ccc(C(=O)Nc2cccc(/C(C)=N/NC(=O)c3ccc([N+](=O)[O-])c(C)c3)c2)cc1OC` here?
A: inconclusive: 12.6 µM [quencher, side channel, partial curve]

Q: Which Potency does the source give for `CCOC(=O)Cc1cc(=O)c2c(=O)n(-c3ccccc3)[nH]c2[nH]1` here?
A: inconclusive: 28.2 µM [quencher, side channel, single point]

Q: `COc1ccc(C(=O)CNc2ccc3ccccc3c2)cc1` was tested. Which Potency did it give?
A: inconclusive: 14.1 µM [quencher, side channel, partial curve]

Q: Which Potency does the source give for `CC(=O)N1N=C(c2ccccc2)OC12CCCC2` here?
A: inactive

Q: How did the Potency turn out when `CCC(Sc1nc2cc3c(cc2c(=O)n1Cc1ccco1)OCO3)C(=O)Nc1cccc(OC)c1` (configuration not stated) was run?
A: inactive

Q: For `C=CCSc1nc2ccccc2[nH]1`, which Potency is on record?
A: inconclusive: 25.1 µM [inhibitor, single point]

Q: For `Oc1c(Br)cc(Br)cc1CNc1ccc(F)cc1`, which Potency is on record?
A: inconclusive: 39.8 µM [quencher, single point]

Q: `COc1cc(/C=C2\SC(=S)N(NC(=O)c3ccc(O)cc3)C2=O)ccc1O` was tested. Which Potency did it give?
A: inconclusive: 17.8 µM [fluorescent, side channel, partial curve]

Q: For `O=C1CSC(c2ccc(Cl)cc2)N1Nc1nc(N2CCOCC2)nc(N2CCOCC2)n1` (configuration not stated), which Potency is on record?
A: inconclusive: 7.94 µM [fluorescent, side channel, partial curve]

Q: Which Potency does the source give for `CCOC(=O)c1c(C)n(C)c2ccc(OCC(O)Cn3nc(C)cc3C)cc12` (configuration not stated) here?
A: inconclusive: 2.82 µM [inhibitor, full curve, poor fit]

Q: `CC(C)C(c1nnnn1C1CCCCC1)N1CCc2ccccc2C1` (configuration not stated) was tested. Which Potency did it give?
A: inconclusive: 17.8 µM [inhibitor, single point]

Q: `Cc1cccc(-c2nnc3n2N=C(c2ccccc2Br)CS3)c1` was tested. Which Potency did it give?
A: inconclusive: 1.26 µM [inhibitor, full curve, poor fit]

Q: With `COc1ccc(Oc2nccc(-c3ccc(F)cc3)c2C#N)cc1` as the molecule, how does the Potency read?
A: inconclusive: 39.8 µM [inhibitor, single point]

Q: How did the Potency turn out when `CC1(C)Cc2c(C#N)c(N3CCOCC3)nc(Cc3ccccc3)c2CO1` was run?
A: inconclusive: 28.2 µM [fluorescent, side channel, single point]

Q: `Cc1c(-c2ccc(F)cc2)nc(N)c(C#N)c1-c1cccs1` was tested. Which Potency did it give?
A: inconclusive: 14.1 µM [inhibitor, partial curve]

Q: `N=c1nc(N)nc2n1NC(c1ccc(F)cc1)=CS2` was tested. Which Potency did it give?
A: inconclusive: 22.4 µM [quencher, side channel, single point]

Q: How did the Potency turn out when `O=C(N[C@@H](Cc1ccc(O)cc1)C(=O)O)C(c1ccccc1)c1ccccc1` was run?
A: inconclusive: 22.4 µM [inhibitor, partial curve, poor fit]

Q: How did the Potency turn out when `COc1ccccc1-n1c(SCC(=O)O)nc2c(sc(=S)n2-c2ccc(Cl)c(C)c2)c1=O` was run?
A: inconclusive: 12.6 µM [quencher, side channel, partial curve]

Q: With `COn1c(SCc2ccc(C)cc2C)nc2ccccc2c1=O` as the molecule, how does the Potency read?
A: inconclusive: 28.2 µM [inhibitor, single point]

Q: With `COc1cccc(CC(=O)N2CCc3nc(-c4ccc(OC)cc4C)c4c(c3C2)CO[C@@H](c2ccccc2)C4)c1` as the molecule, how does the FP activity change, negative = inhibition read?
A: inactive: -16.9% [at 11.7 µM]

Q: For `COc1ccc(OC)c(NC(=O)Cn2cc(C(=O)c3ccco3)c3ccccc32)c1`, which Potency is on record?
A: inconclusive: 17.8 µM [quencher, side channel, partial curve]

Q: For `CCNC(=O)c1ccc(CSc2ccc(Cl)cc2)cc1`, which Potency is on record?
A: inconclusive: 39.8 µM [inhibitor, single point]

Q: How did the Potency turn out when `O=C(c1ccc([N+](=O)[O-])cc1[N+](=O)[O-])n1cnc2ccccc21` was run?
A: inconclusive: 28.2 µM [quencher, side channel, partial curve]

Q: Which Potency does the source give for `O=C(Oc1cccc(-c2cnc3ccccc3n2)c1)c1ccco1` here?
A: inconclusive: 15.8 µM [quencher, side channel, single point]

Q: Which Potency does the source give for `Cc1ccc(-n2nc(C)c3c2OC(N)=C(C#N)C3c2ccccc2F)cc1` (configuration not stated) here?
A: inconclusive: 39.8 µM [quencher, side channel, single point]

Q: `Cc1ccc(S(=O)(=O)c2c(C)nn(C(C)(C)C)c2OC(=O)C2CCCC2)cc1` was tested. Which Potency did it give?
A: inconclusive: 7.08 µM [inhibitor, partial curve]

Q: For `Cc1ccc(C(=O)Cn2c(C(=O)/C=C/c3ccccc3)nc3ccccc32)cc1`, which Potency is on record?
A: inconclusive: 6.31 µM [fluorescent, side channel, full curve]
